Counter-ions that a name gives are not always drawn. The list shows a part of the results. The data scatter; read single values as rough.
Each molecule was assayed on MKN45 (assay: ALDHbr (CSC) cell proportion score relative to DMSO vehicle (ratio to DMSO); breast (SUM159) / gastric (MKN45) / pancreatic (PANC1) / colon cancer lines; ALDHbr cells have high ALDH activity and are rich in cancer stem cells (CSC); higher = more CSC (ALDHbr) cells remaining). Conditions: 10 µM; 72 h.
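Further: High-content imaging of ALDEFLUOR-stained cells with Hoechst-labelled nuclei in 384-well plates, triplicate wells, scored as Z-score against 0.1% DMSO vehicle, negative meaning fewer ALDHbr cells.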

Compound | ALDHbr
CC[N+](C)(C)c1cccc(O)c1 [Edrophonium chloride] | 1.02
CO/N=C(\C(=O)N[C@@H]1C(=O)N2C(C(=O)OC(C)OC(C)=O)=C(COC(N)=O)CS[C@H]12)c1ccco1 (stereo partly specified) [Cefuroxime axetil] | 1.12
C[C@]12CC[C@H]3C(=CCc4cc(O)ccc43)[C@@H]1CCC2=O [Equilin] | 0.697
C[C@@H]1C[C@H]2[C@@H]3C[C@H](F)C4=CC(=O)C=C[C@]4(C)[C@@]3(Cl)[C@@H](O)C[C@]2(C)[C@H]1C(=O)COC(=O)C(C)(C)C [Clocortolone pivalate] | 1.09
Cc1ccc(NC(=O)c2ccc(CN3CCN(C)CC3)cc2)cc1Nc1nccc(-c2cccnc2)n1 [Imatinib] | 0.711
Cc1c(O)cccc1C(=O)N[C@@H](CSc1ccccc1)[C@H](O)CN1C[C@H]2CCCC[C@H]2C[C@H]1C(=O)NC(C)(C)C [Nelfinavir mesylate] | 0.695
CN[C@H]1CC[C@@H](c2ccc(Cl)c(Cl)c2)c2ccccc21 [Sertraline] | 0.817
COc1c(N2C[C@@H]3CCCN[C@@H]3C2)c(F)cc2c(=O)c(C(=O)O)cn(C3CC3)c12 [Moxifloxacin] | 1.47
CN1CCCC(n2nc(Cc3ccc(Cl)cc3)c3ccccc3c2=O)CC1 (stereo unspecified) [Azelastine hydrochloride] | 0.937
Cc1[nH]c(=O)c(C#N)cc1-c1ccncc1 [Milrinone] | 0.987
OC(CNCC(O)C1CCc2cc(F)ccc2O1)C1CCc2cc(F)ccc2O1 (stereo unspecified) [Nebivolol hydrochloride] | 0.989
